The full ranking holds about 33,000 sequences; the median of “E-score (-0.5 to 0.5)” is about -0.04, and the highest 2% start at about 0.36. The list shows a part of the results.

The target of the assay is T1, Hmlalpha2 (UniProt P0CY09).
T1 sequence: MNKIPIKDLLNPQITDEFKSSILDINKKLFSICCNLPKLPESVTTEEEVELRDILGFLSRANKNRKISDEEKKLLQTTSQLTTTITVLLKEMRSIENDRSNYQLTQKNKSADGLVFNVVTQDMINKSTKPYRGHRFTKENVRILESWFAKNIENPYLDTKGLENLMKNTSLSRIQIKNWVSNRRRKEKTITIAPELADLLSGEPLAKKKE
The assay is described as follows: PBM E-score (8-mer binding enrichment) (E-score (-0.5 to 0.5)); higher = stronger / more preferred TF binding; most listed sequences are background and not binding sites. The following applies: protein concentration: 200 nM; construct: GST-full length. In short, it runs like this: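 The E-score, a modified Wilcoxon-Mann-Whitney statistic, was computed by the Universal PBM Analysis Suite for every ungapped eight-base word pooled with its reverse complement. Scans behind it were normalised with masliner after bound GST-tagged yeast transcription factors were detected with fluorescent anti-GST. The proteins, at about 100-200 nM, had been applied to universal all-10-mer Agilent arrays made double-stranded by primer extension.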
Take ATGTGTAG: the “PBM E-score” value was 0.349.

As for GGAGGTAA, the “PBM E-score” value came out at 0.0862.

GCGATCGC: the “PBM E-score” value amounted to 0.0724.

As to CTCGTGTA, the “PBM E-score” value stood at 0.434.

With AGAGCTCA, the “PBM E-score” value was -0.235.

As to ACCTCATA, the “PBM E-score” value is -0.00874.

With AGTGCAAT, the “PBM E-score” value was determined as 0.00712.

For the sequence CCTCGCGC, the “PBM E-score” value is -0.101.

Take CGATTTGC: the “PBM E-score” value is -0.158.

As for CCTAGACA, the “PBM E-score” value was -0.192.

Regarding CTCATAAA, the “PBM E-score” value was 0.0237.

In the case of ATACCTGA, the “PBM E-score” value was found to be 0.0295.

With AGGCCCCG, the “PBM E-score” value was -0.29.

Take ATCTATGA: the “PBM E-score” value is -0.101.

For ATCTAGAG, the “PBM E-score” value was -0.233.

Regarding CAGGTGAC, the “PBM E-score” value stood at 0.0302.

CGGTCCTC: the “PBM E-score” value is -0.2.

CGAAACTA: the “PBM E-score” value is -0.0366.

Turning to GGTCATGA, the “PBM E-score” value was -0.00439.

On to CTTGCGTA, for which the “PBM E-score” value came out at 0.286.

Take AGACGCGA: the “PBM E-score” value amounted to 0.0871.

Take ACATCCCG: the “PBM E-score” value amounted to 0.151.

Turning to ACACGCCG, the “PBM E-score” value came to 0.274.

As to AAGTACTG, the “PBM E-score” value was determined as 0.0391.

GTGCCCGA: the “PBM E-score” value was found to be 0.0138.

Consider AAACACAA, for which the “PBM E-score” value was found to be 0.322.

Regarding AGCAAGAC, the “PBM E-score” value stood at 0.0534.

As to AAAAGTAG, the “PBM E-score” value stood at 0.0501.

AACGGGTA: the “PBM E-score” value came to 0.16.

With CGGAGGAC, the “PBM E-score” value is -0.134.

Take AGAGTGAG: the “PBM E-score” value was -0.0848.

With CACCGACA, the “PBM E-score” value is -0.181.

Take ACTTGTCA: the “PBM E-score” value came out at 0.124.

For the sequence ATGGGAAG, the “PBM E-score” value was -0.248.

As for CGTCCAAA, the “PBM E-score” value was -0.0415.

For AGAATCTA, the “PBM E-score” value is 0.165.

On to AACTTGTG, for which the “PBM E-score” value came out at 0.128.

For ATTTTAGG, the “PBM E-score” value amounted to 0.0606.

Turning to AAACGATA, the “PBM E-score” value was 0.137.

For the sequence ACGTTCCC, the “PBM E-score” value was -0.216.

As to ATTAATTG, the “PBM E-score” value came to 0.167.

With CACACCTC, the “PBM E-score” value was -0.16.

Turning to CTGGACAG, the “PBM E-score” value was -0.261.

Regarding CCAATAGC, the “PBM E-score” value is -0.153.

As to ACAGCATC, the “PBM E-score” value was found to be 0.0898.

Take AATGAGGA: the “PBM E-score” value was -0.103.

As to ATAGCGTA, the “PBM E-score” value came out at 0.189.

Regarding CTTGCAAG, the “PBM E-score” value came to 0.0532.

CTGACGAC: the “PBM E-score” value was found to be 0.0973.

As for TACCCTGA, the “PBM E-score” value is -0.104.

As to ATATGTTA, the “PBM E-score” value is 0.384.

For the sequence ATTGTAAC, the “PBM E-score” value is 0.221.

On to GCAGGTCC, for which the “PBM E-score” value is -0.18.

On to CCAGGACG, for which the “PBM E-score” value amounted to 0.0263.

Regarding ACATGACG, the “PBM E-score” value came to 0.379.

As to CCACGAAC, the “PBM E-score” value was -0.0118.

CACCACTA: the “PBM E-score” value was -0.0439.

For GTAGATAC, the “PBM E-score” value came to 0.167.

Turning to CGCAGTGA, the “PBM E-score” value is -0.0678.

For the sequence CAGGACCC, the “PBM E-score” value was -0.282.

TCAAAGGA: the “PBM E-score” value is -0.126.

With ACCACAGT, the “PBM E-score” value turned out to be 0.0716.

Regarding CGCAATGC, the “PBM E-score” value came to 0.108.

On to ATGTTATG, for which the “PBM E-score” value was determined as 0.425.

As for GAATCTAC, the “PBM E-score” value came out at 0.193.

As for ACCGTTCT, the “PBM E-score” value was -0.122.

On to CTTAGTTC, for which the “PBM E-score” value is 0.0399.

Turning to AAGACGGC, the “PBM E-score” value was -0.258.

As for GAGTGCAA, the “PBM E-score” value turned out to be 0.179.

Consider CCCCTAGG, for which the “PBM E-score” value is -0.399.

In the case of CGAGAACC, the “PBM E-score” value turned out to be 0.0638.

With GACAGTAC, the “PBM E-score” value worked out at 0.0466.

On to GAGAGCAC, for which the “PBM E-score” value is -0.213.

With AAGCTGAG, the “PBM E-score” value is -0.0274.

CCAGACTC: the “PBM E-score” value was -0.182.

In the case of GTATGGTA, the “PBM E-score” value worked out at 0.187.

TATAGTCA: the “PBM E-score” value worked out at 0.0292.

In the case of CTAAGAGA, the “PBM E-score” value is -0.0638.

Turning to ACTAAAAG, the “PBM E-score” value was -0.0519.

Consider GACACGCA, for which the “PBM E-score” value is 0.301.

As for GCTAGATA, the “PBM E-score” value came out at 0.0187.

For AGATCGCG, the “PBM E-score” value worked out at 0.0722.

On to GCAGAAAC, for which the “PBM E-score” value came to 0.0971.

AAGTTACG: the “PBM E-score” value is 0.0933.

For CGAATGAA, the “PBM E-score” value is 0.043.

In the case of ATTTCCTG, the “PBM E-score” value amounted to 0.0368.

The values above are taken from the supplement of paper PMC3334620.
